Structures are written as SMILES.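 Method: 48-hour compound exposure of cells in 96-well plates, five concentrations, linear interpolation of endpoints. GI50: concentration for 50% inhibition of growth.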 Calls of active or inactive are those of the source. Rule as the data show it: active = GI50 up to about 1.1 µM and inactive = higher.

For the assay, the system named is NCI-H322M. Put plainly: NCI anticancer screen, dose series, 48 h.
Consider `c1ccc(SC(Sc2ccccc2)c2ccc3c(c2)OCO3)cc1`, for which the GI50 was inactive: > 100 µM.
With `COc1cc(N(C)C)ccc1C=c1c2ccccc2n2c1cc(-c1ccccc1)[n+]2C`, the GI50 is active: 0.498 µM.
For the molecule `CCN1CCC(O)(c2ccc(Cl)cc2)C(C(=O)c2ccc(Cl)cc2)C1` (stereo not given), the GI50 was inactive: > 100 µM.
In the case of `Cc1cc2c(c(/C=N/Cc3ccccc3)c1)OC1(C=C2)Oc2ccccc2C(=O)N1C` (stereo not given), the GI50 is inactive: 20.7 µM.
As for `COC1CC(C)C(OC)C2=CC(=O)C=C(NC(=O)/C(C)=C/C=C\C(C)C(OC(N)=O)/C(C)=C\C(C)C1OC)C2=O` (stereo not given), the figure is inactive: 2.37 µM; as for `CCOC(=O)c1nc(SC)sc1NC(=O)c1ccc(OC)cc1`, inactive: > 100 µM.
In the case of `CCOc1ccc(N/C(=C(/C(Cl)=C(/Cl)NCCN)[N+](=O)[O-])n2nnc3ccccc32)cc1`, the GI50 was inactive: > 100 µM.
As for `Cc1ccnn1CCc1ccc(Cl)cc1Cl`, the figure is inactive: 23.9 µM.
For the molecule `CC/C(Cl)=N\OC(=O)Nc1ccc(OC)cc1`, the GI50 was inactive: 16.7 µM.
On to `COc1ccc(C2(CC(C)C)CCN(S(=O)(=O)c3ccc(C)cc3)C2)cc1OC` (stereo not given), for which the GI50 is inactive: 54.3 µM.
`Cn1cnc2[nH]c(=O)[nH]c(=S)c21`: the GI50 is inactive: > 100 µM.
For the molecule `Oc1ccc(Cl)cc1CN1CCN(Cc2cc(Cl)ccc2O)C1`, the GI50 is active: 0.91 µM.
Regarding `O=[N+]([O-])c1ccc(N/N=C(\c2ccccc2)c2ccccn2)nc1`, the GI50 was inactive: 2.94 µM.
Turning to `O=S(=O)(c1ccc(Br)cc1)n1c2ccc(Br)cc2c2nc3ccccc3nc21`, the GI50 is inactive: > 100 µM.
With `CCC(C(C)N1CC(=O)NC(=O)C1)N1CC(=O)NC(=O)C1` (stereo not given) the figure was inactive: 82.8 µM.
As for `COc1cc(C2SC(=N)Nc3c2c(C)nn3C(=O)Cc2ccccc2)ccc1O` (stereo not given), the figure is inactive: > 100 µM.
`CN1CC2=C(N=C(S)NC2c2ccccc2Cl)/C(=C/c2ccccc2Cl)C1` (stereo not given): the GI50 is inactive: > 100 µM.
Take `CCN1c2ccccc2-n2c(C)nnc2-c2c(-c3ccccc3)n[nH]c21`: the GI50 is inactive: > 100 µM.
With `O=C(O)c1cnc(-n2[nH]c3c(c2=O)CCCC3)[nH]c1=O` the figure was inactive: > 100 µM.
Consider `CCC1(N=[N+]=[N-])C(=O)c2ccccc2N(c2ccccc2)C1=O` (stereo not given), for which the GI50 is inactive: > 100 µM.
On to `C[Si](C)(C)CCOCN(C(=O)C1=CCC2(CC1)OCCO2)c1ccccc1I`, for which the GI50 is inactive: 19.3 µM.
With `CCOC(=O)c1c(N2CCCC2)[nH]c(=O)c(C(c2ccc(Cl)c([N+](=O)[O-])c2)c2c(O)c(C(=O)OCC)c(N3CCCC3)[nH]c2=O)c1O` the figure was inactive: > 100 µM.
Take `O=C1CCCC(O)=C1SC1=C(O)CCCC1=O`: the GI50 was inactive: > 100 µM.
With `CCCCCC/C=C/C#CCCCCCCCC(=O)O`, the GI50 was inactive: > 100 µM.
As for `Cc1cc(O)c2c(c1)C(=O)C=C(Br)C2=O`, the figure is inactive: 29.3 µM; as for `CN(C)CCSc1nccc(-c2cc3ccccc3s2)n1`, inactive: 31.8 µM; as for `O=C1c2ccccc2C(=O)C1C(c1ccc(F)cc1)C1C(=O)c2ccccc2C1=O`, inactive: > 100 µM.
On to `Nc1ccc(S(=O)(=O)c2ccc(/N=[N+](\[O-])c3ccc(S(=O)(=O)c4ccc(N)cc4)cc3)cc2)cc1`, for which the GI50 is inactive: 52.5 µM.
As for `CC(C)=C[C@H]1CCC2(OCCO2)[C@]1(C)CO`, the GI50 was inactive: > 100 µM.
Turning to `O=C1C=Cc2c(I)sc(I)c21`, the GI50 is inactive: 39.6 µM.
`COc1nc(N)c(NC2OC(CO)C(O)C2O)c(=O)[nH]1` (stereo not given): the GI50 was inactive: > 100 µM.
Regarding `NC1CCCCC1.O=C(O)C(CP(=O)(O)O)=C(Cl)Cl`, the GI50 was inactive: > 100 µM.
As for `CC(C)(C)n1c(=O)n2n(c1=O)Cc1cccc3cccc(c13)C2`, the figure is inactive: 36.3 µM; as for `NC(=S)N1N=C2c3ccccc3CCC[C@H]2[C@@H]1c1ccccc1`, inactive: 4.71 µM; as for `COC(=O)[C@@H]1C[C@H]2[C@H](c3ccccc3Br)[C@@H](OC(C)=O)[C@@H](OCc3ccccc3)ON2O1`, inactive: > 100 µM.
`NCC(=O)Nc1ccccc1`: the GI50 was inactive: > 100 µM.
For the molecule `CCn1c(C)nn2c(=O)c3ccccc3nc2c1=O`, the GI50 is inactive: > 100 µM.
With `CC(C)(C)[Si](C)(C)OCC1OC(n2cnc3c(N)ncnc32)C2OC(=S)OC12` (stereo not given) the figure was inactive: 54.5 µM; with `CC1=CC(C)(C)NN1C1=NS(=O)(=O)c2ccccc2N1C`, inactive: > 100 µM.
For the molecule `CC[C@]12C=CCN3CCC4(c5cc(/N=N/c6ccccc6)c(OC)cc5N(C)[C@H]4[C@@](O)(C(=O)OC)[C@@H]1OC(C)=O)[C@@H]32` (stereo not given in full), the GI50 is inactive: 18 µM.
In the case of `O=C(Cc1nc2ccccc2s1)C(=O)Nc1cccc(Cl)c1`, the GI50 was inactive: > 100 µM.
With `Cc1ccccc1NC(=S)N/N=C(/c1ccccc1)c1ccccn1` the figure was active: < 0.01 µM; with `COc1ccc(N2C(=O)C3c4[nH]c5ccccc5c4C4CCC(C(C)C)CC4C3C2=O)cc1` (stereo not given), inactive: > 100 µM.
Regarding `S=C(Nc1ccc(/N=N/c2ccccc2)cc1)SCc1ccccc1`, the GI50 is inactive: 13.2 µM.
Take `CCOC(=O)C(C(=O)OCC)C1C=CCC2c3ccccc3COCC21` (stereo not given): the GI50 is inactive: > 100 µM.
With `C=C1C(=O)O[C@H]2/C=C(/C)C3=CC(=O)[C@@](C)(C[C@@H](OC(=O)/C(C)=C\C)C12)O3` (stereo not given in full), the GI50 was inactive: 10.9 µM.
With `O=C1CC2CCCC23CC2(CCN13)OCCO2` (stereo not given), the GI50 is inactive: > 100 µM.
Consider `COC(=O)/C(C#N)=C(\Nc1ccccc1)N1CCOCC1`, for which the GI50 is inactive: > 100 µM.
Turning to `COC(=O)/C=C\C(C#N)(C#N)/N=C/c1ccc(OC)cc1`, the GI50 was inactive: 25.7 µM.
As for `CC(=O)O/N=C/c1c2ccccc2cc2ccccc12`, the figure is inactive: 40.8 µM; as for `O=C1C[C@@H](c2ccccc2)NCCCCN(O)CCCN1`, inactive: > 100 µM; as for `CNc1ncnc2c1cnn2COCC(O)CO` (stereo not given), inactive: > 100 µM.
As for `O=c1oc2ccc3ccccc3c2cc1-c1nc2ccccc2s1`, the figure is inactive: > 100 µM; as for `O=C(CNc1ccc(Cl)cc1)Nn1c(-c2ccccc2)nc2ccccc2c1=O`, inactive: 15.3 µM.
As for `Cc1cn(C2C=CC(=O)C(C)O2)c(=O)[nH]c1=O` (stereo not given), the GI50 is inactive: 19.3 µM.
Regarding `CC(C)(C)c1cc(C(=O)O)c2c(c1)C(=O)OC2(c1ccccc1)c1ccccc1C(=O)O` (stereo not given), the GI50 was inactive: > 100 µM.
As for `CC(C)=CCN(N=O)c1ncnc2[nH]cnc12`, the GI50 is inactive: > 100 µM.
As to `Cc1cccc(C)c1NC(=S)NC=C(C(N)=O)C(N)=O`, the GI50 is inactive: > 100 µM.
Consider `CC1=NN(c2ccc(S(=O)(=O)O)cc2)C(=O)/C1=C/c1ccc(Cl)cc1.c1ccncc1`, for which the GI50 is inactive: > 100 µM.
For `OCCN(CCO)c1ncnc2c1sc(=S)n2-c1ccccc1`, the GI50 is inactive: > 100 µM.
With `CSc1c(C#N)c(O)nc(N)c1C(=O)Nc1ccc(Cl)cc1`, the GI50 was inactive: 12.6 µM.
Take `COC(=O)[C@@H](C)[C@H]1CC[C@@](C)(CCC2=C(C)CC3C=C(C)CCC3C2(C)C)OO1` (stereo not given in full): the GI50 is inactive: 1.72 µM.
Take `COC(=O)[C@H](NC(=O)OC(C)(C)C)[C@H]1COC(C)(C)O1`: the GI50 is inactive: > 100 µM.
`C[C@]12CC[C@H](O)CC1=CC[C@@H]1[C@@H]2CC[C@]2(C)C(=N/O)/C(=C/c3ccc([N+](=O)[O-])cc3)C[C@@H]12`: the GI50 is inactive: 4.66 µM.
As for `Cc1cccc(Nc2cn(CCOc3ccccc3)c(=O)n(CCOc3ccccc3)c2=O)c1`, the GI50 is inactive: > 100 µM.
Regarding `CC(C)(C)C1=C(Br)C(F)(C(C)(C)C)OP1(=O)c1ccccc1` (stereo not given), the GI50 was inactive: 22.6 µM.
`O=C1OCC2=Nc3cccc4cccc(c34)N12`: the GI50 was inactive: 6.4 µM.
Regarding `CCCC(=O)n1[nH]c(=O)n(C(C)(C)C)c1=O`, the GI50 is inactive: > 100 µM.
On to `Nc1ccc(-c2cssc2=S)cc1`, for which the GI50 is inactive: 56.1 µM.
On to `CNC1=CC(=O)C2=C(C1=O)[C@H]1CC[C@]3(C)C(=O)CC[C@H]3[C@@H]1CC2`, for which the GI50 was inactive: 15 µM.
`CC(=O)Nc1ccc(N2C(=O)CS(=O)(=O)C2c2cccc(Oc3ccccc3)c2)cc1` (stereo not given): the GI50 was inactive: 17.5 µM.
As to `COC(=O)c1cccc(COc2ccc([N+](=O)[O-])cc2Cl)c1`, the GI50 was inactive: > 100 µM.
As for `O=C(C=C1SCCS1)/C=C\c1ccc(Cl)cc1`, the GI50 was inactive: 90.4 µM.
With `C=C1C2C[C@@H]3O[C@H]4C[C@H]5O[C@@]6(C[C@@H]7O[C@]8(C[C@H](C)[C@@H]9O[C@@H]%10CC(CO)O[C@@H]%10C[C@@H]9O8)C[C@H](C)[C@@H]7O6)C[C@H]5O[C@H]4[C@H](C)[C@H]3OC(=O)C[C@H]3CC[C@@H]4OC5[C@H]6O[C@]7(CC[C@H]8CC(=C)[C@H](CC[C@@H](C[C@H]1C)O2)O8)CC6O[C@@H]5[C@@H](O7)[C@H]4O3` (stereo not given in full) the figure was active: < 0.0001 µM; with `CC(=O)O[C@H]1C(=O)[C@@]2(C)C([C@H](OC(=O)c3ccccc3)[C@]3(O)C[C@H](OC(=O)[C@H](O)[C@H](NC(=O)c4ccccc4)c4ccc(Cl)cc4)C(C)=C1C3(C)C)C1(OC(C)=O)CO[C@@H]1C[C@@H]2O` (stereo not given in full), active: 0.0059 µM.
In the case of `O=C1CCCCC/C1=C\c1cccc([N+](=O)[O-])c1`, the GI50 was inactive: 44.5 µM.
With `COC(=O)[C@H](Cc1ccccc1)NP(=O)(OCCC#N)OCC1OC(n2cc(C)c(=O)[nH]c2=O)CC1N=[N+]=[N-]` (stereo not given in full), the GI50 was inactive: > 100 µM.
Turning to `FC(F)(F)c1nc2ccc(SSc3ccc4nc(C(F)(F)F)[nH]c4c3)cc2[nH]1`, the GI50 was inactive: > 10 µM.
Regarding `N#Cc1c(N2CCN(c3ccc([N+](=O)[O-])cc3)CC2)[n+]([O-])c2ccccc2[n+]1[O-]`, the GI50 was inactive: > 100 µM.
On to `COc1cc2c(cc1OCCCN1C(=O)c3cccc4cccc(c34)C1=O)N=C[C@@H]1CCCN1C2=O`, for which the GI50 is inactive: > 100 µM.

Source of the values: ChEMBL document CHEMBL1201862, “PubChem BioAssay data set” (2004).
